No constants are given. Whether binding was seen depends on the method and setting. Binding seen in cells or lysates may run through a third protein. Some entries that bind do so weakly or less than the wild type. Sequences can lack the tags named with a protein.
T1: HA-GADD45α (UniProt P24522)
T1 sequence: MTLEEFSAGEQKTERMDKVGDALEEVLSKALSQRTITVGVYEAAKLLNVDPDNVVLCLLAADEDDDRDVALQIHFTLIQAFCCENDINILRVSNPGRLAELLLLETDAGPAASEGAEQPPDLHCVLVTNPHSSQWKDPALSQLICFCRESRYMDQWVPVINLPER

Protein sequences, listed by entry. Tags and fused reporters are not part of them.
UniProt Q9Y6R4: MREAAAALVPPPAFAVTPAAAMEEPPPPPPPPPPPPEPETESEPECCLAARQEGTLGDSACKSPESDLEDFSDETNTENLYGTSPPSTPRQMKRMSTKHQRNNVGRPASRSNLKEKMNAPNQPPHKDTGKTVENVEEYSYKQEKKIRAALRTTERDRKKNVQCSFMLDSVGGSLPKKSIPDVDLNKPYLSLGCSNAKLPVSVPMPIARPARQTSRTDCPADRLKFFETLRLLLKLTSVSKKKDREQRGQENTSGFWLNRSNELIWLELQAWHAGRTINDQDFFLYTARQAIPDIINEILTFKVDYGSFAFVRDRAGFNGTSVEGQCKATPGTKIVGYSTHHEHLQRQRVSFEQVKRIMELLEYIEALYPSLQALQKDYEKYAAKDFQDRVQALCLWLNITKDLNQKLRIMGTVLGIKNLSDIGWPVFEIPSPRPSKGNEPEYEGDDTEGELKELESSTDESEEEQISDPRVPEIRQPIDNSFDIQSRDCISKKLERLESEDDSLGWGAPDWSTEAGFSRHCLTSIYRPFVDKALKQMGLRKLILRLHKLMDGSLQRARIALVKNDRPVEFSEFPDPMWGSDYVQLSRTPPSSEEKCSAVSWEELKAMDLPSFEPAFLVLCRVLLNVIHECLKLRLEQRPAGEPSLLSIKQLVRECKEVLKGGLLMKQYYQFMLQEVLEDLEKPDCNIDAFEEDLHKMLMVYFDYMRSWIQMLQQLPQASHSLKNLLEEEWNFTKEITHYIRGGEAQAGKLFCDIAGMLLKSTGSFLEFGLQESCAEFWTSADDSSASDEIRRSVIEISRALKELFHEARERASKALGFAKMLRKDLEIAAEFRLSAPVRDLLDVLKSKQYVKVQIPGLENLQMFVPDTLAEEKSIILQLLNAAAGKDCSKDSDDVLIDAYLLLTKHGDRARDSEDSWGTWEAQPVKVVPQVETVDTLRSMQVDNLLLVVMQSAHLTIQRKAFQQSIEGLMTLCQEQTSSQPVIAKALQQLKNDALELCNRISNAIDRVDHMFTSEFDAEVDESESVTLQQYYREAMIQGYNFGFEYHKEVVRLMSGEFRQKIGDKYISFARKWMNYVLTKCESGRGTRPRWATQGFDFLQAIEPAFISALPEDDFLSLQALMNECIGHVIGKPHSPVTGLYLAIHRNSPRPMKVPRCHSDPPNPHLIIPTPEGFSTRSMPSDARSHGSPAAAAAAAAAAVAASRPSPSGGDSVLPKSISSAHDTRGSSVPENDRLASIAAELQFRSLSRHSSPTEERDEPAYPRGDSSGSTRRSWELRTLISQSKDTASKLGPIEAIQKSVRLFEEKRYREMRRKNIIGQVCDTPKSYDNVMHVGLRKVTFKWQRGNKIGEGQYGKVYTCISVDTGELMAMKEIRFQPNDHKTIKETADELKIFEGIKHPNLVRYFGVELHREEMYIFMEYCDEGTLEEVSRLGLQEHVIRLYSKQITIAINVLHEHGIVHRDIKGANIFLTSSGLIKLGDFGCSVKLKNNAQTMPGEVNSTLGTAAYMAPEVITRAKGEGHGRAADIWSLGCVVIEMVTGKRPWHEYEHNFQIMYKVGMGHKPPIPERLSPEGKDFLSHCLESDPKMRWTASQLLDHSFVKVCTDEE
UniProt O14733: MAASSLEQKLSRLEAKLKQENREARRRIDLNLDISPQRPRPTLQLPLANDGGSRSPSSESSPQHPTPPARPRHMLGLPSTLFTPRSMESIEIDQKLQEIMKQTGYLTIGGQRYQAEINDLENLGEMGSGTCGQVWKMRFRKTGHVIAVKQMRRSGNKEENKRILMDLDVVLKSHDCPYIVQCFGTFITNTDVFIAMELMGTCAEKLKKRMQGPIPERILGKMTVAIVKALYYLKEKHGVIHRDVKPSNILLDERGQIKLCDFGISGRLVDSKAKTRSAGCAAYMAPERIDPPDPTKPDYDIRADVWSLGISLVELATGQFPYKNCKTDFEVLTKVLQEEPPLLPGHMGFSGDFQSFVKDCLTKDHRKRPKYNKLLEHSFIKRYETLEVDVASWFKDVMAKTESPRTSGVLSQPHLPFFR


Target: T1, HA-GADD45α
Assay: co-IP; anti-HA antibody with protein A/G plus agarose, overnight at 4°C, on 2 mg lysate of HCT116 (HA-GADD45α) cells treated with NiCl2 (1 mM) for 3 hrs; IP buffer 25 mM Tris-HCl pH 7.5, 1 mM DTT, 30 mM MgCl2, 40 mM NaCl, 0.5% NP-40; western blot of the precipitate

binding | Molecule
binds | MTK1/MEKK4 (from UniProt Q9Y6R4 1-1608) (enzyme)
no binding | MKK7 (from UniProt O14733 1-419) (enzyme)
no binding | MKK4 (enzyme, UniProt P45985 1-399) MAAPSPSGGGGSGGGSGSGTPGPVGSPAPGHPAVSSMQGKRKALKLNFANPPFKSTARFTLNPNPTGVQNPHIERLRTHSIESSGKLKISPEQHWDFTAEDLKDLGEIGRGAYGSVNKMVHKPSGQIMAVKRIRSTVDEKEQKQLLMDLDVVMRSSDCPYIVQFYGALFREGDCWICMELMSTSFDKFYKYVYSVLDDVIPEEILGKITLATVKALNHLKENLKIIHRDIKPSNILLDRSGNIKLCDFGISGQLVDSIAKTRDAGCRPYMAPERIDPSASRQGYDVRSDVWSLGITLYELATGRFPYPKWNSVFDQLTQVVKGDPPQLSNSEEREFSPSFINFVNLCLTKDESKRPKYKELLKHPFILMYEERAVEVACYVCKILDQMPATPSSPMYVD
no binding | MKK6 (enzyme, UniProt P52564 1-334) MSQSKGKKRNPGLKIPKEAFEQPQTSSTPPRDLDSKACISIGNQNFEVKADDLEPIMELGRGAYGVVEKMRHVPSGQIMAVKRIRATVNSQEQKRLLMDLDISMRTVDCPFTVTFYGALFREGDVWICMELMDTSLDKFYKQVIDKGQTIPEDILGKIAVSIVKALEHLHSKLSVIHRDVKPSNVLINALGQVKMCDFGISGYLVDSVAKTIDAGCKPYMAPERINPELNQKGYSVKSDIWSLGITMIELAILRFPYDSWGTPFQQLKQVVEEPSPQLPADKFSAEFVDFTSQCLKKNSKERPTYPELMQHPFFTLHESKGTDVASFVKLILGD
no binding | MKK3 (enzyme, UniProt P46734 1-347) MESPASSQPASMPQSKGKSKRKKDLRISCMSKPPAPNPTPPRNLDSRTFITIGDRNFEVEADDLVTISELGRGAYGVVEKVRHAQSGTIMAVKRIRATVNSQEQKRLLMDLDINMRTVDCFYTVTFYGALFREGDVWICMELMDTSLDKFYRKVLDKNMTIPEDILGEIAVSIVRALEHLHSKLSVIHRDVKPSNVLINKEGHVKMCDFGISGYLVDSVAKTMDAGCKPYMAPERINPELNQKGYNVKSDVWSLGITMIEMAILRFPYESWGTPFQQLKQVVEEPSPQLPADRFSPEFVDFTAQCLRKNPAERMSYLELMEHPFFTLHKTKKTDIAAFVKEILGEDS

Source: paper PMC3594291
